PubChem BioAssay AID1845207 (Molecular Pharmacology Branch, DTP, NCI, 2023)
For part of its entries the source gives two or more results. The list is limited to them. The source may hold further records. Values given together are repeats (runs, samples, wells, individuals or studies). Brackets with × stand for listed records that agree. Marks such as [2022-09] give the month of the run.

System: NCI-H1876 tumor spheroid viability
Experiment: Anticancer human tumor NCI-H1876 cell line growth inhibition;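 further: spheroids exposed to compounds for seven days before the viability read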;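 on viability, T/C: percent of DMSO vehicle control viability so 100% = vehicle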
Conditions: spheroids with HUVEC and MSC; for viability, T/C: stronger effect = lower value; for IC50: compound alone
Source text: Multicellular complex tumor spheroid response to DNA repair inhibitors in combination with DNA-damaging drugs
This study explores the anticancer activities of DNA-damaging drugs and inhibitors of DNA damage repair, both as single agents and in combinations. Complex tumor spheroids comprised of malignant cells, endothelial cells and mesenchymal stem cells served as an in vitro model for human solid tumors. This model system incorporates physiologically relevant features and patient-derived or established malignant cell lines with clinically relevant genetic alterations from many tumor types. Twenty-six patient-derived or established malignant cell lines were evaluated representing sarcoma, melanoma, small cell lung cancer (SCLC), non-small cell lung cancer (NSCLC), as well as bladder, ovarian and pancreatic cancers. The concentration ranges selected for each drug and investigational agent were based upon clinically achievable concentrations if the clinical Cmax of the agent was known.
Compounds. The drugs and compounds olaparib (NSC753686), talazoparib (NSC767125), berzosertib (NSC777718), elimusertib (NSC800525), nedisertib (NSC802822), VX-984 (NSC792969), AZD-1390 (NSC803789), temozolomide (NSC362856), topotecan (NSC609699), trabectedin (NSC813783), staurosporine (NSC755774), and gemcitabine (NSC613327) were obtained from the National Cancer Institute (NCI) Developmental Therapeutics Program Chemical Repository. The FDA-approved anticancer drug set is available from the Developmental Therapeutics Program at https://dtp.cancer.gov/organization/dscb/obtaining/available_plates.htm. […] The stock solutions were prepared in dimethyl sulfoxide (DMSO, Sigma-Aldrich, St. Louis, MO, cat. D2650) at 400-fold the tested concentration and stored at -70 degrees C. Prior to their use, the stock solutions were diluted in fresh medium and the final DMSO concentration in the assay was 0.25% (v/v). All drugs and investigational agents were tested over a range starting from a high concentration at or near the clinical Cmax and decreasing in half-log increments. If the clinical Cmax for an agent had not been determined, the highest concentration tested was 10 microM.
Cell Lines. The patient-derived cancer cell (PDC) lines: 156681-154-R-J1-PDC, 283228-195-R-J1-PDC, 287954-098-R-J1-PDC, 292921-168-R-J2-PDC, 349418-098-R-PDC, 425362-245-T-J1-PDC, 556581-035-R-J1-PDC, and BL0293-F563-PDC were received from the NCI Patient-Derived Models Repository (PDMR, https://pdmr.cancer.gov). The established cell lines HS-SY-2 (RRID:CVCL_8719), MPNST, and SYO-1 (RRID:CVCL_7146) were obtained from the Sloan Kettering Institute. The alveolar soft parts sarcoma cell line ASPS-1 (RRID:CVCL_S738) was established at the NCI and grown from internal seed stocks. The following established cell lines were purchased from the American Type Culture Collection (ATCC, Manassas, VA): G-401 (ATCC, cat. CRL-1441, RRID:CVCL_0270), SW982 (ATCC, cat. HTB-93, RRID:CVCL_1734), VA-ES-BJ (ATCC, cat. CRL-2138, RRID:CVCL_1785), NCI-H719 (ATCC, cat. CRL-5837, RRID:CVCL_1582), NCI-H196 (ATCC, cat. CRL-5823, RRID:CVCL_1509), NCI-H841 (ATCC, cat. CRL-5845, RRID:CVCL_1595), NCI-H1618 (ATCC, cat. CRL-5879, RRID:CVCL_1480), NCI-H1876 (ATCC, cat. CRL-5902, RRID:CVCL_1503), DMS 114 (ATCC, cat. CRL-2066; RRID:CVCL_1174), NCI-H211 (ATCC, cat. CRL-5824; RRID:CVCL_1529), and SW 1271 (ATCC, cat. CRL-2177, RRID:CVCL_1716). The small cell lung cancer cell line COR-L88 was purchased from Sigma-Aldrich (cat. 92031917-1VL, RRID:CVCL_1141). The non-small cell lung cancer cell lines NCI-H226 (RRID:CVCL_1544) and NCI-H322M (RRID:CVCL_1557) were established at the NCI and grown from internal seed stocks. Pooled donor human umbilical vein endothelial cells (HUVEC, Lonza, cat. CC-2519) and human mesenchymal stem cells (hMSC, Lonza, cat. PT-2501) were purchased from Lonza (Walkersville, MD).
Cell Culture. All cells were maintained in an incubator at 37 degrees C and 5% CO2 with 95% humidity. […]

Structure (SMILES): COc1ccc([C@@H](O)c2cc(-c3ncnc4cc(N5CCOCC5)ccc34)c(F)cc2Cl)nn1
- viability, T/C (compound alone 10 µM): 4% [2019-11] and 33.2%, 16.8% [2019-12]

Structure (SMILES): CC[C@@]1(O)C(=O)OCc2c1cc1n(c2=O)Cc2cc3c(CN(C)C)c(O)ccc3nc2-1
- viability, T/C (compound alone 0.00949 µM): 40.6, 38.5, 35.8, 39.1, 43.7% [2019-11] and 24, 19.5, 18.2, 16.4, 16.1% [2019-12]

Structure (SMILES): COc1cc2c(cc1O)CCNC21CSC2c3c(OC(C)=O)c(C)c4c(c3C(COC1=O)N1C(O)C3Cc5cc(C)c(OC)c(O)c5C(C21)N3C)OCO4 (stereo not drawn)
- viability, T/C (compound alone 0.0003 µM): 4.54, 27.7 (2×), 20.6, 27.6, 40.6, 27.5, 17.4, 14.3, 32.9%

Structure (SMILES): Cn1ncnc1[C@H]1c2n[nH]c(=O)c3cc(F)cc(c23)N[C@@H]1c1ccc(F)cc1
- viability, T/C (compound alone 0.949 µM): 33.8%, 11.2% [2019-11] and 6.17% [2019-12]

Structure (SMILES): CC(C)n1c(=O)n(C)c2cnc3cc(F)c(-c4ccc(OCCCN5CCCCC5)nc4)cc3c21
- IC50: 394 nM [2019-11] and > 10 µM [2019-12]

Structure (SMILES): Cc1cc(C)c(CNC(=O)c2cc(-c3ccc(CN4CCOCC4)cc3)cc3c2cnn3C2CCCC2)c(=O)[nH]1
- IC50: 838 nM, 902 nM [2019-11] and > 10 µM [2019-12]

Structure (SMILES): Cn1nnc2c(C(N)=O)ncn2c1=O
- viability, T/C (compound alone 31.6 µM): 98, 79.7, 98.1, 98.3, 54.1, 101, 12.1, 105, 95.6, 92.5%
- viability, T/C (compound alone 100 µM): 67.5, 60.7, 59.6, 65.3, 63.8, 70, 3.38, 72.3, 66.5, 46.7%
